Structures are written as SMILES. The full ranking holds about 13,000 compounds; the median of “IFI” is about 4, and the highest 2% start at about 17. Some of the results follow.

The nature of the assay: GSK_TCMDC: Inhibition Frequency Index (IFI). The number of non-kinase HTS assays where a compound showed > 50 % inhibition, expressed as a percentage of the number of such assays in which the compound was tested (-0 is zero). The assay is classed as functional.
On to `Nc1c2ccccc2nc2cc(Cl)ccc12`, for which the IFI is 4.32%.

The compound `O=S(=O)(Nc1cccc(CCN2CCC(N3CCCCC3)CC2)c1)c1ccccc1C(F)(F)F` had an IFI of 3.39%.

For `Clc1cc(Cl)c2c(c1)C(NCCCNc1nc3ccccc3[nH]1)CCO2` (configuration not stated), the IFI is 7.86%.

In turn, `CN(C)CCOc1ccc2c(=O)cc(CCc3cccc(F)c3F)n(CC(=O)N(C)Cc3ccc(-c4ccc(C(F)(F)F)cc4)cc3)c2c1` registered an IFI of 2.92%.

`COc1ccc2nccc([C@@H](O)CN3CCC(NC(=O)/C=C/c4ccc5cc(C)[nH]c5c4)CC3)c2c1`: the IFI was 0.73%.

`COc1ccc2c(c1)CC(C)(C)NC2CCCCCCCCC1NC(C)(C)Cc2cc(OC)ccc21` (configuration not stated) returned an IFI of 8.63%.

`CCOc1ccc2c(=NN=Cc3ccccc3OC)cc(C)[nH]c2c1` registered an IFI of 3.62%.

Turning to `Cc1cc(-c2ccc3c(c2)CCN(CCC2CCC(NC(=O)/C=C/c4cccc(F)c4)CC2)CC3)on1` (configuration not stated), the IFI came out at 4.48%.

`Cc1ccc(C2(C)CC(C)(C)N(C(=O)COc3ccc4ccccc4c3)c3ccccc32)cc1` (configuration not stated) yielded an IFI of -0%.

Consider `Cc1nnc2c(NC(=O)NC3CCCC3)cc3ccc(-c4cccc(CN(C)C)c4)cc3n12`, for which the IFI was 11.1%.

With `COc1c(C)cc(I)cc1CNCCCNc1cc(=O)c2ccccc2[nH]1`, the IFI was 0.74%.

`CC(CN(C)C)C(=O)Nc1cccc(-c2ccc(-c3nc4cc(C(F)(F)F)ccc4[nH]3)cc2)c1` (configuration not stated) returned an IFI of 6.31%.

In turn, `COc1ccccc1CCNc1nc(C)cc(NCCC(=O)Nc2ccccc2)n1` came in with an IFI of 7.14%.

With `COc1ccccc1NC(=O)Nc1cccc(-c2cccc(-c3nc4cc(C(F)(F)F)ccc4[nH]3)c2)c1`, the IFI came out at 5.05%.

`Cc1cc(N[C@@H](Cc2ccccc2)C(=O)Nc2ccccc2)nc(NCCc2cccs2)n1` yielded an IFI of 11.6%.

As to `COc1ccccc1CCNc1nc(C)cc(N[C@@H](Cc2ccccc2)C(=O)NCCOc2ccccc2)n1`, the IFI came to 17.1%.

`CC1=C(C(=O)Nc2cc3cn[nH]c3cc2F)C(c2cccc(NS(C)(=O)=O)c2)CC(=O)N1` (configuration not stated) came in with an IFI of 0.94%.

`Fc1cccc(COc2ccc(Nc3ncnc4sc(C#Cc5ncc[nH]5)cc34)cc2Cl)c1` displayed an IFI of 1.71%.

For `COc1ccc(-c2cnc(N)c(-c3ccc(C(N)=O)cc3)c2)cc1OC`, the IFI stood at 3.39%.

With `O=C(/C=C/c1ccc(Cl)c(Cl)c1)NCCCCCN1CCC(NC(=O)Nc2ccc3c(c2)OCO3)CC1`, the IFI was 4.64%.

As for `Cc1cc(CNCC(CCNc2cc(=O)c3ccccc3[nH]2)NCc2cc(Br)cc(Br)c2)oc1C` (configuration not stated), the IFI was determined as 6.67%.

The compound `COC(=O)c1cc(OC)c(OC)cc1NC(=O)NC12CC3CC(CC(C3)C1)C2` yielded an IFI of 0.88%.

In the case of `Cc1ccc(Cn2cnc3cc(C(=O)Nc4ccc(-c5cccc(CN(C)C)c5)cc4)ccc3c2=O)o1`, the IFI worked out at 7.92%.

`O=S(=O)(c1c(Cl)cc(Cl)cc1Cl)N1CCCCC(c2ccc(F)c(F)c2)=N1` came in with an IFI of 1.55%.

In turn, `COc1ccc2nccc([C@@H](O)CN3CCC(NCc4cc5ccccc5nn4)CC3)c2c1` returned an IFI of 3.15%.

As for `CS(=O)(=O)NCCCNCc1ccc(-c2cccc(-c3nc4cc(F)ccc4[nH]3)c2)cc1`, the IFI came to 3.96%.

For `O=C(Nc1cc(F)c(F)c(-c2cccnc2)c1)N1CCc2cc(Cl)c(Cl)cc21`, the IFI is -0%.

Take `Nc1ncc(Cc2ccc3c(ccc4ccccc43)c2)c(N)n1`: the IFI amounted to 0.72%.

On to `O=C(NCCCCN1CCC(c2ccc3ccccc3c2)CC1)c1ccc(NC(=O)c2ccc(Cl)cc2)cc1`, for which the IFI was 2.73%.

`CNC(=O)c1cnc(Nc2ccc3[nH]c(=O)[nH]c3c2)nc1Nc1cccc(OC(C)C)c1` came in with an IFI of 4.96%.

`O=C(NC1CC1)c1ccc(N2CCCC(COc3ccc4c(c3)CCCC4)C2)nc1` (configuration not stated): the IFI was -0%.

`CCCCCCCCN1CCCN(C(=O)c2cccc(NC(=O)Nc3ccc4ccccc4c3)c2)CC1` showed an IFI of -0%.

`CCCC(=O)Nc1ccc(OCCCN(Cc2ccccc2C(F)(F)F)c2ccc(C#N)c(C(F)(F)F)c2)cc1` showed an IFI of 2.68%.

Take `N#Cc1ccc(C=Cc2nccc3c2[nH]c2ccccc23)cc1`: the IFI worked out at 3.28%.

In the case of `COC(=O)c1ccc2c(-c3nc4ccc(OC)cc4[nH]3)c[nH]c2c1`, the IFI is 4.32%.

On to `O=C(/C=C/c1ccc(Cl)cc1)NCCCCCN1CCC(C(=O)Nc2ccc(Cl)c(Cl)c2)CC1`, for which the IFI worked out at 11.3%.

In turn, `CN(C(=O)Cc1ccc(Cl)cc1)C1CCN(CCCCCNC(=O)/C=C/c2ccc(Cl)c(Cl)c2)CC1` gave an IFI of 13.7%.

`COc1ccc(OCCCON)cc1` gave an IFI of 0%.

`O=C(Nc1cccc(-c2cccc(-c3nc4ccccc4[nH]3)c2)c1)c1ccoc1` displayed an IFI of 5.36%.

`COc1ccc2nccc([C@@H](O)CN3CCC(NCc4cc5c(Cl)cc(Cl)cc5[nH]4)CC3)c2c1`: the IFI amounted to 6.34%.

For the compound `CCCc1cc(C(C)=O)ccc1OCCCON1C(=N)N=C(N)NC1(C)C`, the IFI came out at 3.68%.

Turning to `Cc1ccc2sc(N(CCCn3ccnc3)C(=O)c3ccco3)nc2c1C`, the IFI turned out to be 4.17%.

For the compound `O=C(/C=C/c1ccc(C(F)(F)F)cc1)NCCCCCN1CCN(C(=O)Nc2ccc(Cl)cc2)CC1`, the IFI worked out at 5.88%.

As for `C(=NN=c1cc[nH]c2ccccc12)c1ccncc1`, the IFI is 0%.

As to `COc1ccc(S(=O)(=O)NC2CCN(CCNC(=O)Nc3cc(C)nc4ccccc34)C2)cc1` (configuration not stated), the IFI is -0%.

`COc1ccc(C2SCC(=O)N2CCc2ccc(OC)c(OC)c2)cc1` (configuration not stated) came in with an IFI of 2.96%.

Consider `CC(NC(=O)c1cc(-c2ccccc2)nc2c1cnn2C(C)C)C1CC1` (configuration not stated), for which the IFI came to 2.04%.

In the case of `Cc1ccoc1C(=O)Nc1cccc(-c2cccc(-c3nc4cccc(C)c4[nH]3)c2)c1`, the IFI was found to be 5.56%.

For the compound `Cc1cccc2nc(-c3cccc(-c4cccc(NC(=O)c5csnn5)c4)c3)[nH]c12`, the IFI was found to be 2.7%.

In turn, `COc1ccc2nccc(NC(=O)C3CCC(NCc4cnc(SC)c([N+](=O)[O-])c4)CC3)c2n1` (configuration not stated) had an IFI of 2.29%.

`Nc1cnc(C#Cc2cc3ncnc(N(CCN4CCOCC4)c4ccc(OCc5cccc(F)c5)c(Cl)c4)c3s2)cn1` returned an IFI of 7.94%.

Turning to `N#Cc1cccc(NC(=O)Nc2cccc(-c3cccc(-c4nc5cc(C(F)(F)F)ccc5[nH]4)c3)c2)c1`, the IFI came to 9.09%.

The compound `O=C(Cc1ccccc1)NC(c1ccco1)c1cc(Cl)c2cccnc2c1O` (configuration not stated) registered an IFI of 8%.

Compound `CCOc1c(OC)ccc2c1CCN(CCN1CCC(CNC(=O)c3ccc(-c4ccc(C#N)cc4)cc3)CC1)C2` yielded an IFI of 4.55%.

Compound `O=C(NCc1ccc(F)cc1)c1cc(Br)cc(N2CCN(c3ccncc3)CC2)c1` gave an IFI of 7.69%.

Consider `Cc1cc(N[C@@H](Cc2ccccc2)C(=O)NCc2cccc(F)c2)nc(NCCc2ccc(F)cc2)n1`, for which the IFI was found to be 9.09%.

On to `CN1CCN(Cc2ccc(-c3ccc4c(Nc5cc(O)c(Cl)cc5F)ccnc4c3)o2)CC1`, for which the IFI was determined as 9.03%.

Values taken from ChEMBL document CHEMBL1157539, “Thousands of chemical starting points for antimalarial lead identification” (Nature, 2010).
